# From PubChem BioAssay AID488969 (Vanderbilt High Throughput Screening Facility, 2010)
# The full ranking holds about 110,000 compounds; the median of “z-score” is about -0.1, and the highest 2% start at about 2. Some of the results follow.
# Target: Metabotropic glutamate receptor 8 (Rattus norvegicus) (UniProt P70579)
# Test: mGluR8 Gi/Go-coupled signaling modulation – cell-based, rat, thallium flux, HTS, primary screen (AID 488969)
# Settings: HEK293 rat mGluR8, GIRK (G protein-gated inwardly rectifying potassium channel) thallium flux, FluoZin2; at 10 µM; stronger effect = higher value; submaximal glutamate (EC20) added with thallium
# Sequence of UniProt P70579 (P70579 whole entry, looked up): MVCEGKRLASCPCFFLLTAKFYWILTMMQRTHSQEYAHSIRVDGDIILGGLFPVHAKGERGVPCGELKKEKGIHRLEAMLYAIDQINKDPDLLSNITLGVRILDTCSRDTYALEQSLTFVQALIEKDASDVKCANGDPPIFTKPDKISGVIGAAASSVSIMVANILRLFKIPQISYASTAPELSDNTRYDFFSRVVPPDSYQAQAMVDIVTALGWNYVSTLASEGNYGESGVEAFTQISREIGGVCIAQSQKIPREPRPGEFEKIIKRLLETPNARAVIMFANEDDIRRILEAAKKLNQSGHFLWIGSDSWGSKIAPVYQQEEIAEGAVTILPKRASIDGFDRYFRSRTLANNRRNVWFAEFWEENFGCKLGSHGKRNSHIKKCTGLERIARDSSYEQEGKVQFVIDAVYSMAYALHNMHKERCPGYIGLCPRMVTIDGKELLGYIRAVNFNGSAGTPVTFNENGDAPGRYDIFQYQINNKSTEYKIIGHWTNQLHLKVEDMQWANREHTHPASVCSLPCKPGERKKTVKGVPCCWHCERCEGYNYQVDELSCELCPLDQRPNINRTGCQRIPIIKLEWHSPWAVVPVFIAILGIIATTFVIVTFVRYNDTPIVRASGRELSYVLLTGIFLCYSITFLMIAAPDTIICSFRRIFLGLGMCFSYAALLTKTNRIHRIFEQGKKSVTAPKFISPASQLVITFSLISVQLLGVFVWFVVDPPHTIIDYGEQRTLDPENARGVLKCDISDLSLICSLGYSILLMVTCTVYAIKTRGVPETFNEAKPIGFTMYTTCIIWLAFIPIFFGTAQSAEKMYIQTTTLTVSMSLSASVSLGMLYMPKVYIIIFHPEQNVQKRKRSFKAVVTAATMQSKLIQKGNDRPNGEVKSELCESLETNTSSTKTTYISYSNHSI
row,SMILES,z-score
1,CCOC(=O)c1ccc(NC(=O)CSc2nnc(COc3ccccc3OC)n2CC)cc1,-0.189
2,C=CCOc1cccc(/C=C2\C(=O)N(Cc3ccc(C)cc3)C(C)=C2C(=O)OC)c1,-0.161
3,COc1ccc(/C=C/C(=O)Nc2ccc(-n3nncc3-c3ccccc3)cc2)cc1OC,0.904
4,CCCCCSc1nnc2c(n1)OC(c1cccn1C)N(C(C)=O)c1ccccc1-2 (centres undefined),0.139
5,CCOC(=O)c1sc(C)c2c1NC1(CCCCC1)NC2=O,0.0327
6,Cc1cc(NC(c2ccc(Cl)cc2)c2ccc3cccnc3c2O)no1 (centres undefined),1.61
7,COc1cccc(OC)c1C(=O)OCC(=O)Nc1ccc(OC(F)(F)F)cc1,-0.154
8,COn1c(=S)[nH]c2ccccc2c1=O,1.06
9,O=[N+]([O-])c1nn(-c2ccccc2)n(O)c1=NCCc1ccccc1,0.152
10,Cc1nn(C)c(C(=O)Nc2ccn(Cc3c(F)c(F)cc(F)c3F)n2)c1[N+](=O)[O-],-0.107
11,COc1ccc(CCN2C(=O)CS/C2=N\NC(=O)c2ccc(C(C)(C)C)cc2)cc1OC,-0.294
12,COCCCNCCOc1ccc(C(C)(C)c2ccccc2)cc1,0.437
13,C[C@H](NS(=O)(=O)c1ccccc1)C(=O)OCC(=O)NC(=O)Nc1ccc2c(c1)OCCO2,0.378
14,Cc1cccn2cc(CNC(=O)CC3CCCC3)nc12,-0.382
15,O=C(Nc1ccncc1)c1cc(F)cc(F)c1,0.0311
16,COc1ccc(OC(C)C(=O)NC2CC(C)(C)NC(C)(C)C2)cc1 (centres undefined),-0.345
17,COC(=O)Oc1ccc(/C=N/NC(=O)CN(c2ccccc2Cl)S(C)(=O)=O)cc1OC,-0.464
18,Cc1sc2nc(CN3CCOCC3)nc(NS(=O)(=O)c3ccccc3)c2c1C,-0.393
19,Cc1nn(CC(=O)NCCN2CCOCC2)c(=O)c2ccccc12,0.993
20,O=C(NCCc1ccccc1)C(=O)NC1CCCCC1,1.55
21,Cn1c(=O)c2c(ncn2CC(=O)N(Cc2ccccc2)c2ccccn2)n(C)c1=O,-0.0804
22,O=c1cc(/C=C/c2cccs2)[nH]c2ccccc12,-0.116
23,CCC(C)OC(=O)C1=C(C)O[C@]23OC(N)=C(C#N)[C@]12C(=O)c1ccccc13 (some centres undefined),-0.703
24,CN(C)C(=O)c1ccccc1Sc1cc(Cl)ccc1Cl,-0.216
25,Cc1cc(NC(=O)CSc2nc3ccsc3c(=O)n2Cc2ccccn2)n[nH]1,0.559
26,CCOc1ccc(-c2noc(CCC(=O)O)n2)cc1,-0.8
27,CCc1ccc(C(=O)OCC(=O)Nc2cccc(S(=O)(=O)NC3=NCCCCC3)c2)cc1,1.21

row,SMILES,z-score
1,CCCCn1c(=O)[nH]c(=O)c2c1nc(CN1C(=O)c3ccccc3S1(=O)=O)n2CCC,-0.0545
2,Cc1ccc(S(=O)(=O)NCCC(=O)Nc2ccc(Cl)c(Cl)c2)cc1,0.267
3,Cn1nnnc1SCc1nnc(-c2ccc(Cl)cc2)o1,2.68
4,Cc1ccc(/C=N/Nc2ccc3c(C(F)(F)F)cc(C(F)(F)F)nc3n2)cc1,-0.572
5,Cc1ccc(OCc2nnc(SCC(=O)Nc3cccc4ccccc34)n2-c2ccccc2)cc1,-0.328
6,CC(=O)NC(NC(=S)Nc1ccc(N=Nc2ccccc2C)cc1C)C(Cl)(Cl)Cl (centres undefined),0.143
7,O=C(NCCCN1CCOCC1)c1ccc(CNS(=O)(=O)c2ccc(F)cc2)cc1,0.0341
8,CCc1nc(SCC(=O)N2CCOCC2)c2c(=O)n(C)c(=O)n(C)c2n1,-0.127
9,COc1ccc(-c2nc(SC)n(C(=O)c3ccco3)n2)cc1,-0.557
10,O=c1c2c([N+](=O)[O-])cc([N+](=O)[O-])cc2sn1-c1ccc(Br)cc1,-0.194
11,CCCCCn1c(CNC(=O)CC)nc2ccccc21,-0.601
12,CC(C)OC(=O)COc1ccc(-c2ccccc2)cc1,0.502
13,CCCc1[nH]nc2c1C(c1cccc(OC)c1)C(C#N)=C(N)O2 (centres undefined),-0.647
14,O=C(c1noc2c1CCc1ccccc1-2)N1CCCc2ccccc21,-0.308
15,CC(=O)c1cccc(NC(=O)c2cc3ccccn3n2)c1,-0.0302
16,CCOc1ccc(/C=C/C(=O)Nc2ccc(N3CCOCC3)cc2)cc1,-0.494
17,Cc1cccc(C)c1NC(=O)C1(N2C(=O)CC2c2ccccc2)CCCCC1 (centres undefined),-0.216
18,O=C(CS(=O)(=O)Cc1ccccc1)N1CCc2ccccc21,-0.121
19,COc1cccc(/C=C/C(=O)Oc2ccc(C(=O)c3ccc(F)cc3)cc2)c1,-2.23
20,C=CCn1c2ccccc2c2nnc(SCN3C(=O)c4ccccc4C3=O)nc21,-0.209
21,CN1C=CC2=C(C#N)C(N)C(C#N)(C#N)[C@H](c3ccccc3)[C@H]2C1 (some centres undefined),-2.28
22,O=C(Oc1ccc2cc(Br)ccc2c1)N1CCCCCC1,-0.558
23,O=C(CN1C(=O)c2ccccc2S1(=O)=O)c1ccccc1,0.695
24,CC1(C)CC(=O)c2c(n(S(=O)(=O)c3ccccc3)c3ccc(NS(=O)(=O)c4ccccc4)cc23)C1,-0.471
25,Nc1cc(C(=O)OCC(=O)NC(c2ccccc2)c2ccccc2)ccc1Cl,-0.446
26,Cc1ccc(S(=O)(=O)N2CCCCC2)cc1NC(=O)c1ccc2c(c1)OCO2,-0.702
27,Cc1ccc(C)c(NS(=O)(=O)c2cc(C(=O)Nc3cccc(N(C)S(C)(=O)=O)c3)ccc2C)c1,-0.232
